From PubChem BioAssay AID1346428 (National Center for Advancing Translational Sciences (NCATS), 2018)
Hit rate of the full screen: of about 48,000 compounds, about 1,200 (2.5%) were called active. About 2% were inconclusive and are not listed.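 Rule for the calls: active = activation of at least 60% and not above a set upper limit (about 1 call in 100 departs from these limits); inconclusive = activation of 40% to 60%, or above that upper limit; inactive = activation under 40%.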 This is one part of the list.

The compounds below were run against Probable G-protein coupled receptor 32 (Homo sapiens) (UniProt O75388) (assay: qHTS for Agonists of Human Resolvin D1 Receptor DRV1). Conditions: CHO-K1 GPR32 beta-arrestin PathHunter luminescence, 90 min; at 76.9 µM; stronger effect = higher value; zero percent set by DMSO-only wells.
Sequence of UniProt O75388 (O75388 whole entry, looked up): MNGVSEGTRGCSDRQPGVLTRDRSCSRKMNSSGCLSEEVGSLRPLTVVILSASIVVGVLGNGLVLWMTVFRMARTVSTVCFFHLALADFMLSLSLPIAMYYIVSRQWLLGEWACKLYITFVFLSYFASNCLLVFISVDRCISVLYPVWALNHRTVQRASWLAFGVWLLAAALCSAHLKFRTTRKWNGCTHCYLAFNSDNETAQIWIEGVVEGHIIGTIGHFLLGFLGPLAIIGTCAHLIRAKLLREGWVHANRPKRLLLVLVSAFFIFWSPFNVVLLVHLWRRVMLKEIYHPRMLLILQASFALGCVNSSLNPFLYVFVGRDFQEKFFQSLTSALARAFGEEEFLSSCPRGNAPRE
Method in brief: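 Beta-arrestin recruitment read-out: luminescence from complemented beta-Gal in CHO-K1 GPR32 PathHunter cells, measured 1 h after detection reagent at ambient temperature following 90 min compound exposure at 37 °C; DMSO served as basal (EC0) control.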
With `CCN(CC)CCCNC(=O)CCc1c(C)n(CC)c2cc(-c3ccccc3OC)nn2c1=O` the activation was inactive: 19.3%.
In the case of `Cc1cccc(N2C(=O)CS(=O)(=O)C23C(=O)N(C)c2ccccc23)c1` (stereo unspecified), the activation is reported as inactive: -5.89%.
With `COC(=O)NNC(=O)C1CCC(C)CC1` (stereo unspecified) the activation was inactive: -3.97%.
For `CN1c2ccc(Cl)cc2-c2nc(SCC(=O)Nc3cc(F)ccc3F)ncc2S1(=O)=O`, the activation was inactive: 2.11%.
For `CCc1cccc(NC(=O)c2nc(-c3ccncc3)no2)c1`, the activation was inactive: -8.94%.
`CCOc1ccc(C(=O)Nc2ccc(-c3nc4cc(C(C)C)ccc4o3)cc2)cc1Cl` was tested, and the activation was active: 84%.
In the case of `COc1ccc(C2=NN(CC(=O)NCc3ccccc3Cl)C(=O)CC2)cc1`, the activation is reported as inactive: -15.5%.
In the case of `Cc1ccc(CCNC(=O)c2c(C)oc3ncnc(N4CCOCC4)c23)cc1`, the activation is reported as inactive: -11.5%.
`Fc1cccc(NCc2cccn2-c2nnc(N3CCOCC3)s2)c1` was tested, and the activation was active: 66.3%.
With `Cc1ccc(NCc2cccn2-c2nnc(N3CCC(C(=O)NCCc4ccccc4)CC3)s2)cc1` the activation was inactive: -32.3%.
With `COc1cccc(CNC(=O)N2CCC(CN3CCC(C)CC3)CC2)c1` the activation was inactive: -3.11%.
In the case of `COc1ccc(-c2c3c(nc4sc(C(=O)Nc5ccc(Cl)cc5)c(N)c24)CC(C)(C)CC3=O)cc1`, the activation is reported as inactive: -7.67%.
`Cc1ccc(CN(C(=O)COc2ccc(C(C)(C)C)cc2)C2CCS(=O)(=O)C2)o1` (stereo unspecified) was tested, and the activation was inactive: -27.7%.
For `COc1ccc(NC(=O)CSc2nc(-c3ccc(OC)cc3)[nH]c2-c2ccc(F)cc2)cc1`, the activation was inactive: -19%.
`CN(C)c1ccc(CNC(=O)CCC(=O)N2Cc3ccccc3Oc3ncccc32)cc1` was tested, and the activation was inactive: -14.4%.
With `COc1cc2cc(CNc3ccc(C)cc3)c(=O)n(CC(=O)Nc3ccc(C(C)C)cc3)c2cc1OC` the activation was inactive: -1.14%.
With `CCn1ccc2cc(S(=O)(=O)N3CCC(C(=O)NCCc4ccc(SC)cc4)CC3)ccc21` the activation was inactive: -5.79%.
`Clc1ccc(CNc2nc3ccccc3c3nc(-c4cccnc4)nn23)cc1` was tested, and the activation was inactive: -7.86%.
With `CCc1cccc(C)c1NC(=O)CN1C(=O)c2c(c3ccccc3n2C)C1c1ccc(OC)cc1` (stereo unspecified) the activation was inactive: -16.1%.
For `Cn1nnc2c(N3CCCCC3)ncnc21`, the activation was inactive: -8.14%.
For `CCOc1ccccc1NC(=O)CN(CCc1ccccc1)S(=O)(=O)c1ccc(C)cc1`, the activation was inactive: -3.98%.
With `COCCc1nn2c(=O)cc(COC(=O)c3cccs3)nc2s1` the activation was inactive: 7.07%.
In the case of `COc1cccc(CCNC(=O)c2c(O)nc3cc(C)ccn3c2=O)c1`, the activation is reported as inactive: -6.96%.
For `COc1ccc(-c2nc(CCNC(=O)c3cccs3)cs2)cc1OC`, the activation was inactive: -2.92%.
With `CCCCN(C)C(=O)CN1C(=O)CCn2nc(-c3cn(C)c4ccccc34)cc21` the activation was inactive: 32.7%.
With `COCCCNC(=O)Nc1cc(C(=O)NCc2ccc(OC)cc2)ccc1N1CCCC1` the activation was inactive: -13.6%.
In the case of `CCc1ccccc1NC(=O)C(NS(=O)(=O)c1ccc2c(c1)CCC(=O)N2)c1ccccc1` (stereo unspecified), the activation is reported as inactive: -1.91%.
With `CC(=O)OCC(=O)[C@@]1(O)CC[C@H]2[C@@H]3CCC4=CC(=O)C=C[C@]4(C)[C@H]3[C@@H](O)C[C@@]21C` the activation was inactive: -5.33%.
In the case of `COc1ccc2cc(CNc3ccccc3)c(=O)n(CC(=O)Nc3ccc(C)cc3C)c2c1`, the activation is reported as inactive: -24.9%.
`O=C1NC(c2cccc([N+](=O)[O-])c2)=CCN1c1ccccc1O` was tested, and the activation was inactive: -12.2%.
With `Cc1ccc2c(CC(=O)Nc3c(C(=O)Nc4cccc(Cl)c4)oc4ccccc34)coc2c1C` the activation was inactive: 3.57%.
With `Cc1ccc2nc(SCc3nc(-c4ccccc4C)no3)[nH]c2c1` the activation was inactive: 10.8%.
With `Cc1ccccc1Cn1c(Oc2ccccc2F)nc2c1c(=O)n(C)c(=O)n2C` the activation was inactive: 3.55%.
In the case of `Cc1ccc(N2CCN(C(=O)C3CCC(CNS(=O)(=O)c4ccc(Br)s4)CC3)CC2C)cc1` (stereo unspecified), the activation is reported as inactive: 6.45%.
In the case of `CCCCN(CC)CCNC(=O)Cn1c(=O)c2cccn2c2cccnc21`, the activation is reported as inactive: -5.7%.
`Cc1ccc(NC(=O)Cn2c(=O)c(C(F)(F)F)nc3ccccc32)c(C)c1` was tested, and the activation was inactive: 4.74%.
In the case of `CN(Cc1ccccc1)C(=O)Cn1ncc2c3ccccc3n(Cc3cccc(Cl)c3)c2c1=O`, the activation is reported as inactive: -6.82%.
With `COc1ccc(NC(=O)CSC2=Nc3ccccc3C3=NC(Cc4ccccc4)C(=O)N23)cc1Cl` (stereo unspecified) the activation was inactive: -10.8%.
In the case of `Cc1ccc(Nc2cc(C(=O)NC3CCCC3)c3ccccc3n2)c(C)c1`, the activation is reported as inactive: -8.32%.
`Cc1ccc(Cl)cc1Nc1sc(C(=O)c2ccccc2)c(N)c1S(=O)(=O)c1ccccc1` was tested, and the activation was inactive: -17.4%.
In the case of `CC(C)(C)c1ccc(C(=O)N2CC(=O)Nc3ccc(F)cc3C2c2ccc(F)cc2)cc1` (stereo unspecified), the activation is reported as inactive: -27.9%.
With `Cc1cc(C)c2oc(-c3cccc(NC(=O)c4cc5ccccc5o4)c3)nc2c1` the activation was inactive: 23%.
In the case of `CCc1cnc2c(c1SCC(=O)NCc1ccccc1)c(=O)n(C)c(=O)n2C`, the activation is reported as inactive: -0.087%.
For `COc1cc(CCC(=O)NCc2ccc3c(c2)CCN3C(=O)c2cccc(C)c2)cc(OC)c1OC`, the activation was inactive: -15.7%.
With `COc1cc(C2c3c(oc4ccccc4c3=O)C(=O)N2Cc2ccccc2Cl)ccc1O` (stereo unspecified) the activation was inactive: -0.233%.
For `O=C(c1ccco1)N1CCN(c2nc3ccc(Cl)cc3s2)CC1`, the activation was inactive: 8.27%.
`CCn1ccc2cc(S(=O)(=O)N3CCC(C(=O)NCCOC)CC3)ccc21` was tested, and the activation was inactive: 0.31%.
In the case of `CCc1nc2ccc(C(=O)NCCc3ccc(OC)c(OC)c3)cc2nc1CC`, the activation is reported as inactive: -4.01%.
With `CCOc1ccccc1CNC(=O)c1[nH]c2ccccc2c1Sc1ccccc1` the activation was inactive: -22.5%.
`CCCOC(=O)c1ccc(N)cc1` was tested, and the activation was inactive: 0.577%.
With `Nc1ncnc2c1ncn2C1CCCC1` the activation was inactive: -0.635%.
With `O=S(=O)(c1ccc(-c2cc(C(F)(F)F)on2)s1)N1CCN(c2cccc(Cl)c2)CC1` the activation was inactive: 6.79%.
In the case of `CCN1CCN(CCCNC(=O)c2cc3c(s2)-c2c(C)cccc2OC3)CC1`, the activation is reported as inactive: 11.5%.
For `Cc1nn2c(C(F)(F)F)cc(-c3ccc(OC(C)C)cc3)nc2c1C#N`, the activation was inactive: -0.305%.
`Cc1ccccc1OCC(=O)Nc1ccccc1C(=O)OCc1cc(=O)n2c(C)csc2n1` was tested, and the activation was inactive: 10.6%.
For `COCCn1c(C)cc(O)c(C(c2ccccc2OC)N2CCCCC2)c1=O` (stereo unspecified), the activation was inactive: -15.7%.
With `COc1ccc(OC)c(CCNC(=O)c2ccc3[nH]c(C)c(C)c3c2)c1` the activation was inactive: -6.97%.
With `COc1ccc(C(CC(=O)Nc2ccc(OC)c(OC)c2)N2Cc3ccccc3C2=O)cc1` (stereo unspecified) the activation was inactive: -20.1%.
`O=C(Nc1cccc(C2=NCCN2)c1)Nc1cccc(C2=NCCN2)c1` was tested, and the activation was inactive: -0.218%.
With `Cc1ccc(C)c(N2CCN(C(=O)c3cccn3-c3nnc(N4CCCCC4)s3)CC2)c1` the activation was inactive: -5.15%.
In the case of `COc1cccc(CNC(=O)c2cc3c(=O)n(C)c4ccccc4c3n2C)c1`, the activation is reported as inactive: -2.5%.
`COC(=O)Cc1c(C)c2ccc3c(c2oc1=O)CN(Cc1ccc(Cl)cc1)CO3` was tested, and the activation was inactive: -13.5%.
In the case of `CCOc1ccc(-n2cc(-c3ccccc3)c3c(NCc4ccccc4)ncnc32)cc1`, the activation is reported as inactive: -36.4%.
For `COCCn1c(SCc2ccccc2F)nc2c([nH]c3ccccc32)c1=O`, the activation was inactive: -3.43%.
In the case of `COc1cc(CN(C(=O)c2ccc(C)cc2)C2CCS(=O)(=O)C2)cc(OC)c1OC` (stereo unspecified), the activation is reported as inactive: -12.6%.
For `Cc1cccc(CNC(=O)c2ccc(Cn3c(SCc4cccc(F)c4)nc4cccnc43)cc2)c1`, the activation was inactive: -26.7%.
For `Cc1ccc(NS(=O)(=O)c2cn(C)c(C)n2)c(Br)c1`, the activation was inactive: 34.7%.
With `COc1ccc(CNC(=O)C2CCN(S(=O)(=O)N3CCC(C)CC3)CC2)c(OC)c1` the activation was inactive: -5.76%.
`COc1ccc(NC(=O)CCn2cnnn2)cc1` was tested, and the activation was inactive: -2.43%.
In the case of `CCCSc1ncc(Cl)c(C(=O)Nc2ccc(S(=O)(=O)N3CCCCC3C)cc2)n1` (stereo unspecified), the activation is reported as inactive: -23.6%.
In the case of `Cc1ccc2c(c1)c1c(c(=O)n(Cc3ccccc3)c(=O)n1Cc1cccc(F)c1)n2C`, the activation is reported as inactive: -5.56%.
In the case of `N#C/C(=C\c1cccc(F)c1)c1nc(-c2cc3ccccc3oc2=O)cs1`, the activation is reported as inactive: -5.42%.
In the case of `Cc1ccccc1OCc1nnc(SCc2cc(=O)c3cc(F)ccc3[nH]2)n1C`, the activation is reported as inactive: 46.5%.
For `CCC1CN(CC(=O)NCc2cccc(Br)c2)c2ccccc2S1` (stereo unspecified), the activation was inactive: 19.4%.
With `Cc1ccc(S(=O)(=O)c2cn(CC(=O)Nc3ccc4c(c3)OCO4)c3ccc(C)cc3c2=O)cc1` the activation was inactive: -15.8%.
For `COc1ccc(-c2nc3ccccc3o2)cc1NC(=O)c1cc([N+](=O)[O-])ccc1N1CCOCC1`, the activation was inactive: -8.73%.
For `COc1ccc(-c2ccc(CCC(=O)O)n2-c2ccccc2C(F)(F)F)cc1`, the activation was inactive: -2.21%.
With `COC(=O)Cc1c(C)nc2nc(NCc3ccc(Br)cc3)[nH]n2c1=O` the activation was inactive: 25%.
For `CC(Oc1ccccc1)C(=O)Nc1ccccc1C(=O)OCc1cc(=O)n2nc(C3CC3)sc2n1` (stereo unspecified), the activation was inactive: 28.7%.
For `CCc1nnc(SCC(=O)Nc2ccc(OC)c(OC)c2)c2cc3occc3n12`, the activation was inactive: -6.39%.
In the case of `CCc1ccc(N2CC(C)Cn3c2nc2c3c(=O)n(CC(=O)O)c(=O)n2C)cc1` (stereo unspecified), the activation is reported as inactive: 9.02%.
In the case of `CC[C@H](c1ccc(O)cc1)[C@@H](CC)c1ccc(O)cc1`, the activation is reported as inactive: 8.6%.
In the case of `Cc1c(Nc2ncccc2C(=O)O)cccc1C(F)(F)F`, the activation is reported as inactive: 30.8%.
For `CCOc1ccc(-c2cc(C)n3nc(C(=O)Nc4ccc(C)c(C)c4)cc3n2)cc1`, the activation was inactive: 3.4%.
`CCOC(=O)CN(Cc1ccccc1)C(C(=O)NC1CCCCC1)c1ccccc1` (stereo unspecified) was tested, and the activation was inactive: -22.4%.
With `COc1ccc(CCNC(=O)c2c(Nc3ccccc3C)sc(C(=O)c3ccccc3)c2N)cc1OC` the activation was inactive: -50.9%.
